The supplement of paper PMC3334620
Whole data set: some 33,000 sequences, median “E-score (-0.5 to 0.5)” near -0.016, cut for the highest 2% near 0.32. The list shows a part of the results.

These sequences were tested against T1, Stp1 (UniProt B3LFK1) (assay: PBM E-score (8-mer binding enrichment) (E-score (-0.5 to 0.5)); higher = stronger / more preferred TF binding; most listed sequences are background and not binding sites). Settings: protein concentration: 200 nM; construct: GST-full length.
T1 sequence: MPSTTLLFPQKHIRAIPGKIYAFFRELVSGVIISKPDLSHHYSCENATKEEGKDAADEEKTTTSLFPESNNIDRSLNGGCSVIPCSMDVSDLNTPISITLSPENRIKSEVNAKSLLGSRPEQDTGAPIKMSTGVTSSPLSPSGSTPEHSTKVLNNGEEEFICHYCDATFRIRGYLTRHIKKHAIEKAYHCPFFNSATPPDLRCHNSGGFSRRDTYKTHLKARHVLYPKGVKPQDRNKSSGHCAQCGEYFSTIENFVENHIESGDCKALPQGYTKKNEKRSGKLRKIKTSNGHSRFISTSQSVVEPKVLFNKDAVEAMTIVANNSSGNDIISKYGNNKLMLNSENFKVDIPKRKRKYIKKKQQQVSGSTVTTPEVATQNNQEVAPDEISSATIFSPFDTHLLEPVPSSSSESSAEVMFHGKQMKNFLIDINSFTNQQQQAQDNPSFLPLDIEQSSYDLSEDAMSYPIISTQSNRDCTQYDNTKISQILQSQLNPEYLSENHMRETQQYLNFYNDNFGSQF
Outline: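 Bound GST-tagged yeast transcription factors, applied at about 100-200 nM to double-stranded universal all-10-mer Agilent arrays, were detected with fluorescent anti-GST. Scans were normalised with masliner. A modified Wilcoxon-Mann-Whitney statistic, the E-score, was assigned to each ungapped eight-base word pooled with its reverse complement by the Universal PBM Analysis Suite.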
With GGCTCTGA the “PBM E-score” value was 0.14. ATCACTTA was tested, and the “PBM E-score” value was -0.0814. GTGGGGCA was tested, and the “PBM E-score” value was -0.0812. ATTAATCG was tested, and the “PBM E-score” value was 0.11. For TCTCATCA, the “PBM E-score” value was 0.0266. For CTGTAGGC, the “PBM E-score” value was -0.0839. With GCGCATCA the “PBM E-score” value was -0.0269. In the case of GCACGGAA, the “PBM E-score” value is reported as 0.276. With CGAGTTGA the “PBM E-score” value was -0.0551. With AAAAGGGC the “PBM E-score” value was 0.0404. AGGTAGAA was tested, and the “PBM E-score” value was -0.135. With CACGCAAA the “PBM E-score” value was -0.0453. In the case of AATTTCCA, the “PBM E-score” value is reported as 0.142. With GGTAGGCA the “PBM E-score” value was -0.034. With AAGTCCAA the “PBM E-score” value was 0.00792. In the case of ATCGTACC, the “PBM E-score” value is reported as -0.172. With CAGCTTAC the “PBM E-score” value was 0.00113. For AGCTGCTC, the “PBM E-score” value was -0.127. In the case of AAAGGTGC, the “PBM E-score” value is reported as 0.0054. In the case of GGGACTAA, the “PBM E-score” value is reported as -0.237. ATGCTTCA was tested, and the “PBM E-score” value was -0.0772. For GGAGGACA, the “PBM E-score” value was -0.145. With AATGGCAT the “PBM E-score” value was 0.356. For AATACTGA, the “PBM E-score” value was -0.0458. AACGACCA was tested, and the “PBM E-score” value was -0.0875. AGAACTGG was tested, and the “PBM E-score” value was -0.00022. For GGGGGCTA, the “PBM E-score” value was -0.316. With CGTCGGAC the “PBM E-score” value was -0.171. In the case of TACAGGGA, the “PBM E-score” value is reported as -0.227. For AAGCGACC, the “PBM E-score” value was -0.00088. For CGAGCTGC, the “PBM E-score” value was 0.00684. ACTTTCTA was tested, and the “PBM E-score” value was -0.119. With GAAACAAC the “PBM E-score” value was 0.0536. With ACATACGG the “PBM E-score” value was 0.261. With GGTCTAAA the “PBM E-score” value was -0.114. With CTCCACCA the “PBM E-score” value was -0.327. With TAAGACCA the “PBM E-score” value was -0.199. With GGACCAGA the “PBM E-score” value was -0.0819. With GCCCACTA the “PBM E-score” value was -0.166. AGCCTATA was tested, and the “PBM E-score” value was -0.0714. In the case of CCGCTGGC, the “PBM E-score” value is reported as -0.146. In the case of GAAACACC, the “PBM E-score” value is reported as 0.0719. In the case of CATAAGGG, the “PBM E-score” value is reported as -0.0274. In the case of AATTGATC, the “PBM E-score” value is reported as -0.0583. With AGTGAGAT the “PBM E-score” value was -0.0136. In the case of AGTCCCCG, the “PBM E-score” value is reported as -0.273. In the case of AGTGTATC, the “PBM E-score” value is reported as 0.0651. With CGCAAGTC the “PBM E-score” value was -0.309. ATGCGTAA was tested, and the “PBM E-score” value was -0.0947. In the case of TATACCCA, the “PBM E-score” value is reported as -0.118. CCCTTGCG was tested, and the “PBM E-score” value was -0.169. With AGAGCACT the “PBM E-score” value was -0.0395. CGGGTATA was tested, and the “PBM E-score” value was 0.171. With AGGGTCGG the “PBM E-score” value was -0.169. TAGTGAAA was tested, and the “PBM E-score” value was 0.00941. With CCCTAGGC the “PBM E-score” value was -0.111. For CGTACTAG, the “PBM E-score” value was 0.0843. With GGACCTTA the “PBM E-score” value was -0.137. For CGGGCACC, the “PBM E-score” value was 0.237. With AAACTCTG the “PBM E-score” value was 0.0551. In the case of ATTTTCTA, the “PBM E-score” value is reported as 0.12. With GGTACCAA the “PBM E-score” value was -0.0801. With AAAAGTTC the “PBM E-score” value was 0.168. With CTACCCGA the “PBM E-score” value was -0.112. For ATGACCGA, the “PBM E-score” value was -0.171. In the case of AGAGGCGG, the “PBM E-score” value is reported as 0.061. With ACACTCGA the “PBM E-score” value was 0.0199. For GCCGAGCC, the “PBM E-score” value was 0.235. AATAGATG was tested, and the “PBM E-score” value was 0.0249. With GTTAGTTA the “PBM E-score” value was 0.143. With CGTGCTGC the “PBM E-score” value was 0.23. With CATTTGAA the “PBM E-score” value was -0.0106. For CTCTCCGC, the “PBM E-score” value was 0.159. AACTGATA was tested, and the “PBM E-score” value was 0.144. For CTGCAACC, the “PBM E-score” value was -0.183. With GTACTTTA the “PBM E-score” value was -0.0385. With CCCAGCCG the “PBM E-score” value was -0.189. With CACTGTCC the “PBM E-score” value was -0.147. AAAACTTG was tested, and the “PBM E-score” value was 0.17. With CTAAATTA the “PBM E-score” value was 0.121. In the case of GCAGCCGC, the “PBM E-score” value is reported as 0.281. GGTCGCCA was tested, and the “PBM E-score” value was -0.223. For AGTAGCGC, the “PBM E-score” value was 0.0214. With GCTTGGAC the “PBM E-score” value was -0.0946. With AATGCGAC the “PBM E-score” value was 0.141. For CACGGGAC, the “PBM E-score” value was 0.0861. With GCCCAAGC the “PBM E-score” value was 0.0308. With CCCATGTC the “PBM E-score” value was -0.183. With CTCCCTTA the “PBM E-score” value was -0.287. TAGAATCA was tested, and the “PBM E-score” value was 0.067. With ATTAACCC the “PBM E-score” value was -0.00649. ACTAGTGA was tested, and the “PBM E-score” value was -0.134. In the case of CCATCCTA, the “PBM E-score” value is reported as -0.0429. With CGGGCCAC the “PBM E-score” value was -0.0797. For CTAAGCAC, the “PBM E-score” value was 0.114. In the case of GACTAGGC, the “PBM E-score” value is reported as -0.0379. For TCGAAAGA, the “PBM E-score” value was -0.00504. AAGGTGCT was tested, and the “PBM E-score” value was -0.0616. With CCCAATGA the “PBM E-score” value was -0.139. In the case of CGATGTAA, the “PBM E-score” value is reported as 0.0131. With AACTGACC the “PBM E-score” value was -0.229. In the case of GGATCTAC, the “PBM E-score” value is reported as -0.105. In the case of ATACAAGA, the “PBM E-score” value is reported as 0.00694. In the case of ACGCGTAG, the “PBM E-score” value is reported as 0.0455. With CATCACGG the “PBM E-score” value was 0.091. For AACAACCA, the “PBM E-score” value was 0.0647. For GGTATGGA, the “PBM E-score” value was -0.137. For CTCCATCC, the “PBM E-score” value was -0.161. In the case of ATACTGCC, the “PBM E-score” value is reported as 0.114. For GCTTAAAA, the “PBM E-score” value was 0.165. With CATTTCCA the “PBM E-score” value was 0.0507. For GCGTCCAC, the “PBM E-score” value was -0.124. With AATTGGTG the “PBM E-score” value was 0.106. For ACGGCGTC, the “PBM E-score” value was 0.472. With CGTATAAC the “PBM E-score” value was 0.217. In the case of CGATATCC, the “PBM E-score” value is reported as 0.0519. AATGAGCG was tested, and the “PBM E-score” value was 0.0869. For ATAGCTTG, the “PBM E-score” value was -0.0558. For GTAAAATA, the “PBM E-score” value was 0.162. With ACGCTGAT the “PBM E-score” value was 0.0676. In the case of AACCGGCT, the “PBM E-score” value is reported as -0.13. For GTCAGGAA, the “PBM E-score” value was -0.152. CAGTGTCC was tested, and the “PBM E-score” value was 0.0396. CCACCTTA was tested, and the “PBM E-score” value was -0.206. GTGTTGTA was tested, and the “PBM E-score” value was 0.109. In the case of CAACACCC, the “PBM E-score” value is reported as -0.2. With CCTCACTC the “PBM E-score” value was -0.0347. In the case of CGGCGGTC, the “PBM E-score” value is reported as 0.216. In the case of AGGCTAAC, the “PBM E-score” value is reported as -0.064. For TAGTAAGA, the “PBM E-score” value was -0.042. In the case of ATAATAAG, the “PBM E-score” value is reported as 0.177. In the case of CTCGCCCC, the “PBM E-score” value is reported as -0.194. AGTATTAA was tested, and the “PBM E-score” value was 0.141. With CTCGCAAG the “PBM E-score” value was 0.0643. With ACCCAGGC the “PBM E-score” value was -0.106. For CCGCCGAA, the “PBM E-score” value was 0.216. CAACTGAA was tested, and the “PBM E-score” value was -0.028. ATGGGGCA was tested, and the “PBM E-score” value was 0.212. With GGAGATCA the “PBM E-score” value was -0.0865. With CGCGGGAA the “PBM E-score” value was 0.0432. In the case of GTGAGTTA, the “PBM E-score” value is reported as -0.0798. AGTGATGA was tested, and the “PBM E-score” value was -0.127. For AGCACCCC, the “PBM E-score” value was -0.128. For GGACATAA, the “PBM E-score” value was -0.0555. For CTCGGGGA, the “PBM E-score” value was -0.286. AAGACATA was tested, and the “PBM E-score” value was 0.0549. AACAAGTC was tested, and the “PBM E-score” value was 0.0314. For CTCCAGAA, the “PBM E-score” value was 0.0504. ACATCTAT was tested, and the “PBM E-score” value was 0.118. For AGAAAGCG, the “PBM E-score” value was 0.122. ACTTCGGA was tested, and the “PBM E-score” value was -0.0461. CCCTATGC was tested, and the “PBM E-score” value was -0.156. With CCTAAGGA the “PBM E-score” value was 0.013. In the case of AGGCGACT, the “PBM E-score” value is reported as 0.0881. For ATTCCTCG, the “PBM E-score” value was -0.0929. For AACCGTAT, the “PBM E-score” value was -0.0259. In the case of ACTTACAA, the “PBM E-score” value is reported as 0.195. For AAGAGTAA, the “PBM E-score” value was 0.192. CAACACCG was tested, and the “PBM E-score” value was 0.0621. For CTATAGTC, the “PBM E-score” value was -0.305. For CTTACTCC, the “PBM E-score” value was -0.0284. With GTGGCAAC the “PBM E-score” value was 0.216. In the case of ATGGGTAA, the “PBM E-score” value is reported as -0.00955. CCGCCCCA was tested, and the “PBM E-score” value was 0.109. With AGTGTCTA the “PBM E-score” value was -0.0646. For CGTAATCA, the “PBM E-score” value was 0.213. With ACTCCCCA the “PBM E-score” value was -0.21. AATAGCGG was tested, and the “PBM E-score” value was 0.0188. For GAGTATTA, the “PBM E-score” value was 0.17. In the case of GCAGAGTA, the “PBM E-score” value is reported as -0.182. In the case of CCTTCGTC, the “PBM E-score” value is reported as -0.112. With CTCCGCCC the “PBM E-score” value was -0.192.
